# Results: article PMC4336329 (PLoS ONE, 2015)
# Out of some 310,000 compounds screened, about 14,000 (4.5%) showed an effect of 50% or more. Effects have a minus sign here. The list shows a part of the results.
# Target: human ether-à-go-go-related gene (hERG) potassium channel (human, UniProt Q12809)
# Assay: primary screen, population patch clamp on CHO cells stably expressing hERG
# 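Note: peak tail current of the secondary pulse compared with the same well before compound.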
# Chain of human ether-à-go-go-related gene (hERG) potassium channel (Q12809 whole entry, looked up): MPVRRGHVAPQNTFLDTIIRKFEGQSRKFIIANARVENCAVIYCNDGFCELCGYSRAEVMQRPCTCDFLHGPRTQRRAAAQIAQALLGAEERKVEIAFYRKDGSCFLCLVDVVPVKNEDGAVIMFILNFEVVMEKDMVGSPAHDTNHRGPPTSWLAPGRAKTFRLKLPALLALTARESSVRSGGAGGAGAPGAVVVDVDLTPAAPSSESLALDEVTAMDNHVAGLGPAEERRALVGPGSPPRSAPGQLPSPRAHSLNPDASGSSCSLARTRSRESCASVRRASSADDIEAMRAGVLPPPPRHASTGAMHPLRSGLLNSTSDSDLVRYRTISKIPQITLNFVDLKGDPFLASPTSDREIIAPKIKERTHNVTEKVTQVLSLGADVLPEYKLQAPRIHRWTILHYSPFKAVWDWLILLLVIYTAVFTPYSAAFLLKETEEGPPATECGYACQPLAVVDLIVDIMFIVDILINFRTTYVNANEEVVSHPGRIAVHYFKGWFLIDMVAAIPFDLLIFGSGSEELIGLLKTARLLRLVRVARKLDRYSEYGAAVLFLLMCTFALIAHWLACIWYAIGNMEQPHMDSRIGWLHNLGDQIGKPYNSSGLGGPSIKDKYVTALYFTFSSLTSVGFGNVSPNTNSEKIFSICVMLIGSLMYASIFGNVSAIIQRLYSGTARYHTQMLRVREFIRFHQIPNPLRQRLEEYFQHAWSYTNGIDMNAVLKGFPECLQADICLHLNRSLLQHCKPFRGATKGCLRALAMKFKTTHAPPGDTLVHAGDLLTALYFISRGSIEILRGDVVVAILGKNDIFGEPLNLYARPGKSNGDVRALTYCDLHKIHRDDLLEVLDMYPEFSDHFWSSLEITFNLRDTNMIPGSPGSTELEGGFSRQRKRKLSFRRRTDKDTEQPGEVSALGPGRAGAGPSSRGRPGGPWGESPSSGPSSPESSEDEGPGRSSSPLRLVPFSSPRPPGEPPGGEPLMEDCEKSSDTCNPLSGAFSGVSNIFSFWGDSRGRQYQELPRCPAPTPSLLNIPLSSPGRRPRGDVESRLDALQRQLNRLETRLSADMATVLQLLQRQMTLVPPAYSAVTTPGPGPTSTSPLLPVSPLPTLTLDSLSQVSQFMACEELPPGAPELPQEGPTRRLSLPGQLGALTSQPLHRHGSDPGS
row,Compound,"hERG current change (%, negative = inhibition) at 10uM [%]"
1,CCn1c(CCNC(=O)c2ccc(Cl)cc2)nnc1SCC(=O)NC1CCCC1,-19.6
2,COc1ccccc1/C=C1\SC(=S)N(NS(=O)(=O)c2ccccc2)C1=O,8.33
3,Cc1ccc(C)c(N2CCN(C(=O)C3CCN(c4nnc(N5CCCC5=O)s4)CC3)CC2)c1,-6.06
4,CCCCCOC(=O)Cn1c(=O)oc2ccc(C)cc21,-10.6
5,COc1cc(/C=C2\SC(=O)NC2=O)ccc1Oc1ccc([N+](=O)[O-])cn1,-10.4
6,CC(C)C(=O)NC(NC(=S)NC1CCS(=O)(=O)C1)C(Cl)(Cl)Cl (centres unmarked),13.3
7,Cn1c(SCC(N)=O)nnc1C1CCN(C(=O)NC2CCCCC2)CC1,15.1
8,CCOC(=O)C1CCN(S(=O)(=O)c2ccc3c(ccn3C)c2)CC1,-0.0195
9,CCOCCCn1c(SCC(=O)NCc2ccc3c(c2)OCO3)nc2ccccc2c1=O,-59
10,CCOC(=O)CNC(=O)c1nn(-c2ccc(OCC)cc2)c(=O)c2ccccc12,-13.7
11,CCOC(=O)c1cccc(NC(=O)C2CCCN(S(=O)(=O)c3cnc[nH]3)C2)c1 (centres unmarked),-5.05
12,COc1cc2c3c(c1OC)C1(C=CC(=O)C=C1)CC3N(C(=O)c1ccccc1)CC2 (centres unmarked),-18.6
13,Fc1ccc(C2Nc3cccc4cccc(c34)N2)cc1,30.5
14,COc1cc(COc2ccc(-c3nnco3)cc2)ccc1OC(F)F,30.7
15,CCOC(=O)CNS(=O)(=O)CCN1C(=O)c2ccccc2C1=O,1.65
16,CCn1c(N)c(C(=O)COC(=O)CCc2nc3ccccc3c(=O)[nH]2)c(=O)[nH]c1=O,2.58
17,COc1ccc(N(CC(=O)N/N=C/c2cccnc2)S(=O)(=O)c2ccc(C)cc2)cc1OC,-14.2
18,Cc1ccc(NC(=O)CC(=O)c2ccccc2)cc1C,7.56
19,O=C(Nc1ccnn1C1CCN(Cc2ccccn2)CC1)c1cccc(F)c1,-7.3
20,Cn1c(/C(C#N)=C(\O)c2ccc(S(=O)(=O)N3CCCCC3)cc2)nc2ccccc21,12.1
21,Cc1cc(C)cc(NC(=O)c2cc(C)nn2C)c1,0.0741
22,CC1Cc2nc(SCC(=O)Nc3ccc(F)cc3F)n(C)c(=O)c2S1 (centres unmarked),-22
23,Cc1ccc2c(=O)c(CN3CCCCCC3)c(C)[nH]c2c1C,-6.86

row,Compound,"hERG current change (%, negative = inhibition) at 10uM [%]"
1,Cc1csc(NC(=O)CSc2nncc(=O)n2N)n1,19
2,O=C(NNC(=O)c1cccnc1)c1ccncc1,14.1
3,CCN1C(=O)C(CC(=O)Nc2ccc(OC)cc2)N(CCCN2CCN(c3ccc(OC)cc3)CC2)C1=S (centres unmarked),-68
4,S=C(NC1CCCCC1)N1CCN(Cc2ccccc2Cl)CC1,9.61
5,CCc1ccc(N2CC(C(=O)Nc3ccc(S(=O)(=O)N4CCCCC4)cc3)CC2=O)cc1 (centres unmarked),5.45
6,CCOc1ccccc1C(=O)NC(C(=O)Nc1cccc(S(N)(=O)=O)c1)C(C)C (centres unmarked),3.21
7,N#Cc1c(NC2CCCCC2)nc(-c2ccco2)c2c1CCCC2,21.2
8,C=CCN1C(=O)C(Cc2cccc(Cl)c2)SC1=Nc1ccc(C(=O)O)cc1 (centres unmarked),-10.8
9,CC(CNS(=O)(=O)c1ccccc1)(c1ccccc1)N1CCOCC1.Cl (centres unmarked),6.84
10,COC(=O)CSc1nc2c(c(-c3ccc(C)o3)c1C#N)CCCC2,-1.42
11,O=c1[nH]c2ccc(NC(=S)Nc3ccc(Cl)cc3Cl)cc2[nH]1,8.1
12,O=C(O)c1ccc(-n2nnnc2Oc2ccccc2C(=O)N2CCOCC2)cc1,7.52
13,Cn1c(COc2ccc(F)cc2)nc2ccccc21,-0.759
14,Cc1cc(NC(=O)COC(=O)C2CC(=O)N(c3ccccc3Cl)C2)no1 (centres unmarked),21.2
15,COc1ccc(OCC(=O)N2CCN(C(=O)c3ccc(F)cc3)CC2)cc1,-20.2
16,CCCn1c(CNC(=O)c2ccccc2)nc2ccccc21,-17.7
17,O=C(Nc1cccc(Br)c1)c1ccc2snnc2c1,1.34
18,O=C(CC12CC3CC(CC(C3)C1)C2)N/N=C/c1ccc([N+](=O)[O-])o1,-15.7
19,COc1ccc(C(C(=O)NCC2CCCO2)N(Cc2ccc(F)cc2)C(=O)CNC(=O)c2ccco2)cc1OC (centres unmarked),20.6
20,CN1CCN(C(CNS(=O)(=O)c2ccc(Br)cc2)c2ccc3c(c2)OCO3)CC1 (centres unmarked),-79.8
21,COCCN(Cc1ccccc1)C(=O)C1CCN(S(=O)(=O)c2ccc(OC)c(OC)c2)CC1,-8.3
22,Cc1nc2c3ccccc3nc(NNC(=O)CCC(=O)N3CCN(c4ccccc4)CC3)n2n1,-28.5
23,O=C1CSC(c2ccc(F)cc2)N1c1ccccc1F (centres unmarked),3.29

row,Compound,"hERG current change (%, negative = inhibition) at 10uM [%]"
1,O=C(Nc1ccccc1N1CCCCC1)c1cccc([N+](=O)[O-])c1,9.03
2,COc1ccc(C(=O)COC(=O)CCN=C2NS(=O)(=O)c3ccccc32)c(OC)c1,-30.1
3,CC(C)CC[n+]1ccn(-c2nc3ccccc3nc2[N-]S(=O)(=O)c2ccc(Cl)cc2)c1,-2.84
4,Cc1ccc(CONC(=O)c2ccc(C)cc2)cc1,-3.04
5,Cc1cn(-c2ccc(Br)cc2)[nH]c1=O,8.3
6,Cl.Clc1ccc(CNCCCSc2ncccn2)cc1,-21.3
7,CCCCOC(=O)Nc1ccccc1C(=O)N1CCCC1,0.12
8,CC1Cc2cc(S(=O)(=O)N3CCCC(C(=O)N4CCCCC4)C3)ccc2N1C(=O)C1CC1 (centres unmarked),-4.84
9,O=C(NCC(O)c1ccc([N+](=O)[O-])cc1)C1CCCCC1 (centres unmarked),7.94
10,O=C(NOC(=O)c1cc(Br)ccc1Cl)c1cccs1,6.33
11,COc1ccc(C)cc1S(=O)(=O)Nc1ccncc1,3.79
12,CC(C)C(NC(=O)c1ccc([N+](=O)[O-])cc1Cl)C(=O)N1CCCC1 (centres unmarked),-4.21
13,Cc1cccc(N2CCN(C(=S)c3ccc(-c4ccccc4[N+](=O)[O-])o3)CC2)c1,13.3
14,O=C(O)c1ccccc1C(=O)Nc1nccs1,4.17
15,CC(C)C(OC(=O)c1cc2sccc2n1C)C(=O)NCC1CCCO1 (centres unmarked),-7.71
16,Cc1ccc(NC(=O)C2CC=CCC2C(=O)N2CCCCC2)cc1 (centres unmarked),-8.01
17,Cc1ccc(C2C3=C(CC(C)(C)CC3=O)Nc3onc(C)c32)cc1 (centres unmarked),-9.98
18,COc1ccc(C(=O)Nc2cccc3nc(C)ccc23)c(OC)c1,-0.00572
19,CCn1c(SCC(=O)Nc2cccc(C)c2)nc2c(c1=O)SC(C)C2 (centres unmarked),-25.1
20,Cn1c(CNc2cccc(Cl)c2)nnc1SCC(=O)OC1CCCCC1,-34.1
21,Cc1oc2c(c1C(=O)NCc1ccccc1)CCCC2,3.76
22,CCCC12CN3CCN(CC(C3)/C1=N\NC(=O)c1ccccc1N)C2,-4.19
23,CC(C)(C)OC(=O)n1cc(C(=O)c2ccccc2O)cn1,6.6

row,Compound,"hERG current change (%, negative = inhibition) at 10uM [%]"
1,CCc1ccc(N2C(=O)NC(=O)/C(=C\c3cccn3CCOc3ccc(C(C)C)cc3)C2=O)cc1,9.69
2,COc1ccc(NC(=S)N2CCN(C/C=C/c3ccccc3)CC2)cc1OC,-19.4
3,N#Cc1ccccc1NC(=O)CN1CCN(Cc2ccccc2)CC1,-60.1
4,Cc1cccc(C(=O)Nc2nnc(-c3ccco3)o2)c1,5.64
5,CN(C)CCn1cnc2c1c(=O)[nH]c(=O)n2Cc1ccccc1.Cl,27.6
6,Cc1ccc2nc(NC(=O)[C@H](C)N3C(=O)C4CC=CCC4C3=O)sc2c1 (some centres unmarked),9.6
7,CC(=O)Nc1ccc2c(c1)OCO2,15.8
8,Oc1ccc(Br)cc1C1Nc2ccccc2S1 (centres unmarked),21.7
9,CSc1nc(C)c2c(n1)N(c1ccc(F)cc1)CC2,19.8
10,Cc1cccc(Cc2nnc(CCC(=O)NCc3ccncc3C)o2)c1,1.49
11,CS(=O)(=O)N1CCc2cc(C(=O)N3CCCC3)ccc21,11.7
12,COc1ccc2c(c1)c(C(=O)N/N=C/c1cccs1)c(C)n2C,-9.05
13,O=C(CO/N=C/c1ccccc1O)NNC(=O)c1ccccc1Cl,12.3
14,Cn1c(=O)c2cnc(-c3ccc(C(F)(F)F)cc3)nc2n(C)c1=O,25.7
15,COc1ccc(NC(=O)C(C)N(C)Cc2ccc3ccccc3c2)cc1 (centres unmarked),-25
16,CCc1ccc(-c2nc(CS(=O)CC(=O)O)c(C)o2)cc1 (centres unmarked),-8.03
17,Cc1cccc(N2CCN(C(=O)c3ccnn3C)CC2)c1C,7.15
18,NC(=O)NC(=O)COC(=O)CNS(=O)(=O)c1ccc(F)c(F)c1F,13.3
19,CC(=O)NS(=O)(=O)c1ccc(NC(=O)c2cc3c(=O)n4ccccc4nc3s2)cc1,-1.79
20,O=C(CCN1C(=O)/C(=C/c2ccc(F)cc2)SC1=S)NNC(=O)c1ccncc1,19.6
